# According to PubChem BioAssay (NCATS):
# “And” between values parts separate entries of the source, which are not always exact repeats. Equal entries are not always repeated. This list was built around the results that the source calls inconclusive (neither active nor inactive); the mix of calls is not that of the screen. For some assays here: A potency beside an inconclusive call is a rough fit, not a confirmed value. For some assays here: “Side channel” marks fits to a control or component signal instead of the main read-out. The source made the active and inactive calls. Unless noted, calls come from the whole dose curve.
# What was measured:
# [1] = biological target: Bile acid receptor (Homo sapiens) (UniProt Q96RI1); assay: qHTS assay for small molecule antagonists of farnesoid X receptor signaling (AID 588526); conditions: HEK293T FXR-UAS-bla, beta-lactamase ratio, antagonist mode; activity change, negative = inhibition: at 76.7 µM (top of the series); note: % is set by controls: 0 for no effect and ±100 for the full control effect
# Summary of the method: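 Concentration-response titrations were fitted to the Hill equation for half-maximal inhibition and maximal response, with data normalised to 50 uM chenodeoxycholic acid and DMSO control wells. Cells: FXR-UAS-bla HEK293T, dialyzed FBS.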
# [2] = biological target: Peroxisome proliferator-activated receptor gamma (Homo sapiens) (UniProt P37231); assay: qHTS assay for small molecule antagonists of peroxisome proliferator-activated receptor gamma signaling (AID 588537; active = well fitted inhibition curve with a large enough effect in the signal ratio, with a control signal flat, not every such curve was filed as active; inconclusive = small, poorly fitted or top-dose-only effect, or effect the other way, or a change in a side signal; the % refers to the signal ratio; note: potency is the fitted concentration of half-maximal effect;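 note: reporter cells co-stimulated with 50 nM rosiglitazone agonist during compound treatment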; for activity, negative = inhibition: % of control where 0% means no effect); conditions: HEK293 PPARg-UAS-bla, beta-lactamase ratio, antagonist mode; activity, negative = inhibition: at 76.8 µM (top of the series)
# Summary of the method: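 Compounds are tested as concentration series for inhibition of rosiglitazone-driven (50 nM) reporter expression in GeneBLAzer PPAR-gamma-UAS-bla HEK293 cells. After 16 h at 37 C, CCF4 substrate is added for 2 h at room temperature and blue/green fluorescence is measured.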
# [3] = biological target: Retinoic acid receptor RXR-alpha (Homo sapiens) (UniProt P19793); assay: qHTS assay for small molecule agonists of retinoid X receptor alpha signaling (AID 588544); conditions: HEK293T RXRa-UAS-bla, beta-lactamase reporter, 18 h; activation: at 76.7 µM (top of the series) unless noted; note: potency is the fitted concentration of half-maximal effect;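 for activation: 0% = DMSO basal wells and 100% = reference agonist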
# [4] = qHTS assay for small molecule agonists of the antioxidant response element (ARE) signaling pathway (AID 651741; active = well fitted activation curve with a large enough effect in the signal ratio; inconclusive = small, poorly fitted or top-dose-only effect, or effect the other way, or a change in a side signal; the % refers to the signal ratio; note: potency is the fitted concentration of half-maximal effect; for activation: % of control where 0% means no effect); conditions: HepG2 ARE-bla reporter, beta-lactamase FRET ratio, 16 h; activation: at 96 µM (top of the series) unless noted
# Summary of the method: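 Reporter: beta-lactamase under ARE, stably in HepG2. Exposure: 16 h, 37 C, compounds delivered in DMSO by pin tool after 5 h cell preincubation. Readout: FRET substrate fluorescence after 2 h at RT.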
# [5] = qHTS assay for small molecule agonists of the antioxidant response element (ARE) signaling pathway measured by Nrf2-dependant transcriptional activity (AID 720636; active = well fitted curve in the direction sought with a large enough effect in the repeat runs; inconclusive = weak or mixed curves; inactive = no such curve, though single readings can be large; an effect the other way counts as inactive or inconclusive; note: potency is the fitted concentration of half-maximal effect;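 for activation: HepG2 cells with an ARE-driven luciferase reporter; % of control where 0% means no effect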)
# Summary of the method: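 First, ARE-luc HepG2 cells attached for 6 hr at 37 C in 1% dialyzed FBS medium. Next, compound or DMSO was added and incubated 16 hr. Finally, ONE-Glo reagent was added and luminescence measured after 30 min.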
# [6] = Cellular Toxicity (caspase-3) Hek293 (AID 664; active = well fitted curve in the direction sought with a large enough effect; inconclusive = small, poorly fitted or top-dose-only effect, or another doubt; inactive = no such curve, though single readings can be large; an effect the other way counts as inactive or inconclusive;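 note: cells exposed to compound for 16 h at 37 °C before readout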); conditions: HEK293 caspase-3 activation, DMSO = 0%, 100 µM tamoxifen = 100%; at 92.2 µM (top of the series)
# Summary of the method: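 qHTS, HEK293 (human embryonic kidney), 16 h cpd exposure in complete medium. Caspase-3/7 activation = luminescence increase; normalized to DMSO/100 uM tamoxifen; Hill-fit AC50.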
# [7] = Cell Viability - LYMP2-020 (AID 986; active = well fitted curve in the direction sought with a large enough effect; inconclusive = small, poorly fitted or top-dose-only effect, or another doubt; inactive = no such curve, though single readings can be large; an effect the other way counts as inactive or inconclusive;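 note: cells exposed to compound for 24 h at 37 °C; plate controls were DMSO only for no effect and tetraoctylammonium bromide at 92 µM for full effect; nearly all actives have a fitted effect of over 55% in size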); conditions: activity change, negative = viability loss: at 92.2 µM (top of the series)
# Summary of the method: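 Seed 2500 cells per well and incubate 5 hr at 37 C. Add compounds at a concentration series and incubate 24 hr at 37 C. Add CellTiter-Glo, wait 30 min at RT, read luminescence, and fit a Hill curve for AC50.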
# [8] = Cell Viability - LYMP2-024 (AID 988; active = well fitted curve in the direction sought with a large enough effect; inconclusive = small, poorly fitted or top-dose-only effect, or another doubt; inactive = no such curve, though single readings can be large; an effect the other way counts as inactive or inconclusive;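 note: plate controls were DMSO only for no effect and 92 µM tetraoctylammonium bromide for full effect; nearly all actives have a fitted effect of over 60% in size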)
# Summary of the method: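 qHTS cytotoxicity, human lymphoblastoid line, complete medium; 24 h cpd treatment, 37 C; CellTiter-Glo ATP luminescence readout; tetraoctylammonium bromide positive control; AC50 via Hill fit.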
# [9] = biological target: Bile acid receptor (Homo sapiens) (UniProt Q96RI1); assay: qHTS assay for small molecule agonists of farnesoid X receptor signaling (AID 588527); conditions: HEK293T FXR-UAS-bla, beta-lactamase ratio, 16 h; activation: active compounds read high; note: potency is the fitted concentration of half-maximal effect;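 for activation: 0% = vehicle basal and 100% = reference agonist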
# Summary of the method: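 Agonist-mode beta-lactamase reporter in GeneBLAzer FXR-UAS-bla HEK293T cells, titration up to 92 uM, 16 h exposure at 37 C, CCF4 fluorescence. Response scaled to DMSO (0%) and 100 uM chenodeoxycholic acid (100%), then Hill-fitted for EC50 and efficacy.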
# [10] = biological target: Retinoic acid receptor RXR-alpha (Homo sapiens) (UniProt P19793); assay: qHTS assay for small molecule antagonists of retinoid X receptor alpha signaling (AID 588546; active = well fitted inhibition curve with a large enough effect in the signal ratio, with a control signal flat, not every such curve was filed as active; inconclusive = small, poorly fitted or top-dose-only effect, or effect the other way, or a change in a side signal; inactive = no such curve, though single readings can be large or run the other way; the % refers to the signal ratio; note: potency is the fitted concentration of half-maximal effect); conditions: HEK293T RXRa-UAS-bla, beta-lactamase ratio, antagonist mode
# Summary of the method: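 Beta-lactamase reporter inhibition, read as CCF4 fluorescence ratio (ex 405, em 460/530 nm) after 2 h at RT. HEK293T UAS-bla cells, 2500/well, were stimulated with 9-cis-RA at 500 or 100 nM final alongside test compound for 18 h at 37 C.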
# [11] = qHTS assay for small molecule activators of the nuclear factor-kappa B (NF-kB) signaling pathway (AID 651749; active = well fitted activation curve with a large enough effect in the signal ratio; inconclusive = small, poorly fitted or top-dose-only effect, or a change in a side signal; the % refers to the signal ratio; note: % of control where 0% means no effect); conditions: NF-kB-bla ME-180 cells, beta-lactamase FRET ratio, 16 h; activation: active compounds read high
# Summary of the method: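 Human ME-180 cervical cells with an NF-kB-bla construct; compounds added via 23 nL pin transfer, DMSO as vehicle; incubation 16 hr. Reporter activity measured by FRET disruption.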
# [12] = qHTS assay to identify small molecules that stimulate interleukin-8 (IL-8) secretion (AID 651758; active = well fitted activation curve with a large enough effect in the signal ratio; inconclusive = small, poorly fitted or top-dose-only effect, or effect the other way, or a change in a side signal; the % refers to the signal ratio; note: 0% is about no effect); conditions: HTRF ratio (665/615); activation: at 92.2 µM (top of the series)
# Summary of the method: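 Quantitative HTS in THP-1 monocytic cells at 2000 cells per well, with 16 hrs compound incubation at 37 C. IL-8 in the medium was then quantified by HTRF immunoassay, read after 1-3 hrs at room temperature.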
# [13] = biological target: Peroxisome proliferator-activated receptor gamma (Homo sapiens) (UniProt P37231); assay: qHTS assay for small molecule agonists of peroxisome proliferator-activated receptor gamma signaling (AID 588536; active = well fitted curve in the direction sought with a large enough effect in the signal ratio, with a control signal flat, not every such curve was filed as active; inconclusive = small, poorly fitted or top-dose-only effect, or effect the other way, or a change in a side signal; inactive = no such curve, though single readings can be large or run the other way; the % refers to the signal ratio; note: potency is the fitted concentration of half-maximal effect;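 for activation: 0% = DMSO basal wells and 100% = rosiglitazone at 2 µM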); conditions: HEK293 PPARg-UAS-bla, beta-lactamase ratio, 16 h; activation: at 76.7 µM (top of the series), percent of rosiglitazone response, DMSO as zero unless noted
# Summary of the method: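 This is an agonist-mode beta-lactamase reporter assay in HEK293 PPAR-gamma-UAS-bla cells with 1% charcoal/dextran FBS. Compound titrations ran 16 h at 37 C before CCF4 detection. EC50 and efficacy are Hill fits scaled to 2 uM rosiglitazone (100%) and DMSO basal.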
# [14] = biological target: Vitamin D3 receptor (Homo sapiens) (UniProt P11473); assay: qHTS assay for small molecule antagonists of vitamin D receptor signaling (AID 588541); conditions: HEK293T VDR-UAS-bla, beta-lactamase ratio, antagonist mode; activity change, negative = inhibition: at 76.7 µM (top of the series);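 note: receptor activated by calcitriol during compound treatment; % is set by controls: 0 for no effect and ±100 for the full control effect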
# [15] = biological target: Thyroid hormone receptor beta (Homo sapiens) (UniProt P10828); assay: qHTS assay for small molecule antagonists of thyroid hormone receptor beta signaling (AID 588547; active = well fitted inhibition curve with a large enough effect in the signal ratio, with a control signal flat, not every such curve was filed as active; inconclusive = small, poorly fitted or top-dose-only effect, or effect the other way, or a change in a side signal; the % refers to the signal ratio;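 note: cells stimulated with 0.4 nM T3 agonist during compound exposure; % is set by controls: 0 for no effect and ±100 for the full control effect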); conditions: TR-UAS-bla HEK293, beta-lactamase ratio, antagonist mode, 18 h
# Summary of the method: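 TR-UAS-bla GripTite HEK293 cells in 2% charcoal/dextran FBS medium were preincubated 4 h at 37 C, given compound (0.59 nM to 92 uM) plus 0.4 nM T3 (final) for 18 h, then CCF4 for 2 h at RT; Hill fit gave IC50.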
# [16] = qHTS assay for small molecule activators of the p53 signaling pathway (AID 651743; active = well fitted activation curve with a large enough effect in the signal ratio, not every such curve was filed as active; inconclusive = small, poorly fitted or top-dose-only effect, or a change in a side signal; the % refers to the signal ratio; note: potency is the fitted concentration of half-maximal effect; for activation: % of control where 0% means no effect); conditions: HCT-116 p53RE-bla, beta-lactamase FRET ratio, 16 h; activation: active compounds read high
# Summary of the method: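 Agonist-mode quantitative HTS in HCT-116 cells carrying a p53-response-element beta-lactamase reporter; 16 h compound treatment at 37 C, then FRET substrate loading for 2 h at room temperature and fluorescence read.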
# [17] = biological target: Glucocorticoid receptor (Homo sapiens) (UniProt P04150); assay: qHTS assay for small molecule antagonists of glucocorticoid receptor signaling (AID 588533; active = well fitted inhibition curve with a large enough effect in the signal ratio, with a control signal flat, not every such curve was filed as active; inconclusive = small, poorly fitted or top-dose-only effect, or effect the other way, or a change in a side signal; the % refers to the signal ratio;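 note: cells stimulated with 2 nM dexamethasone as agonist; % is set by controls: 0 for no effect and ±100 for the full control effect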); conditions: HeLa MMTV-bla, GRE beta-lactamase ratio, antagonist mode, 18 h; activity change, negative = inhibition: at 76.8 µM (top of the series) unless noted
# [18] = biological target: Thyroid hormone receptor beta (Homo sapiens) (UniProt P10828); assay: qHTS assay for small molecule agonists of thyroid hormone receptor beta signaling (AID 588545); conditions: TR-UAS-bla GripTite HEK 293, beta-lactamase ratio, agonist mode, 18 h; activation: at 76.7 µM, percent of T3 response, DMSO as zero; note: potency is the fitted concentration of half-maximal effect
# Summary of the method: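 Agonist activity was read as beta-lactamase CCF4 fluorescence (405 ex, 460/530 em), scaled between DMSO (0%) and 10 nM T3 (100%), then Hill-fitted for EC50 and efficacy. HEK 293 TR-UAS-bla cells in 2% charcoal/dextran FBS medium were exposed 18 h at 37 C.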
# [19] = biological target: Peroxisome proliferator-activated receptor delta (Homo sapiens) (UniProt Q03181); assay: qHTS assay for small molecule agonists of peroxisome proliferator-activated receptor delta signaling (AID 588534); conditions: HEK293T PPARdelta-UAS-bla, beta-lactamase ratio, 18 h; activation: at 76.7 µM (top of the series); note: potency is the fitted concentration of half-maximal effect
# Summary of the method: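 Agonist-mode qHTS; reporter cells, 5 hrs 37 C pre-incubation; compound titration, 18 hrs 37 C; CCF4 dye, 2 hrs RT; fluorescence read. EC50/efficacy via Hill fit.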
# [20] = biological target: Peroxisome proliferator-activated receptor delta (Homo sapiens) (UniProt Q03181); assay: qHTS assay for small molecule antagonists of peroxisome proliferator-activated receptor delta signaling (AID 588535; active = well fitted inhibition curve with a large enough effect in the signal ratio, with a control signal flat, not every such curve was filed as active; inconclusive = small, poorly fitted or top-dose-only effect, or effect the other way, or a change in a side signal; inactive = no such curve, though single readings can be large or run the other way; the % refers to the signal ratio); conditions: HEK293T PPARd-UAS-bla, beta-lactamase FRET ratio, 18 h; activity change, negative = inhibition: at 76.7 µM (top of the series) unless noted
# Summary of the method: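 Inhibition of PPAR-delta response element-driven beta-lactamase expression is measured in HEK293T cells exposed to a compound titration series for 18 hrs at 37 C. Half-maximal inhibition comes from Hill equation fitting.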
# Tags give direction and shape of the fitted curve or compound fluorescence and quenching.
# Sequence of UniProt P19793 (P19793 whole entry, looked up): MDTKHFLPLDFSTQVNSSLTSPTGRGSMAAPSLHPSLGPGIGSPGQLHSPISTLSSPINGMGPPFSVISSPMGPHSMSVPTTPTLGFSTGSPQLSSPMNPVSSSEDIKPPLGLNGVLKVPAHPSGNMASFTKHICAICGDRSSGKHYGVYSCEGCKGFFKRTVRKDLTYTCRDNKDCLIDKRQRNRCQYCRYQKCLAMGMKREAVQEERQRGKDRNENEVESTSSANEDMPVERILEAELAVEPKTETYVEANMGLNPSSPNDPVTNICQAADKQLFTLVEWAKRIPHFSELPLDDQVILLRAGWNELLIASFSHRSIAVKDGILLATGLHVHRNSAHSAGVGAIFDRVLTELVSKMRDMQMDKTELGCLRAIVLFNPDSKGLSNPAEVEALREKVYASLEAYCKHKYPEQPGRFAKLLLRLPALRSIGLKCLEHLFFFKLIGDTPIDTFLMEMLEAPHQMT
# Sequence of UniProt P10828 (P10828 whole entry, looked up): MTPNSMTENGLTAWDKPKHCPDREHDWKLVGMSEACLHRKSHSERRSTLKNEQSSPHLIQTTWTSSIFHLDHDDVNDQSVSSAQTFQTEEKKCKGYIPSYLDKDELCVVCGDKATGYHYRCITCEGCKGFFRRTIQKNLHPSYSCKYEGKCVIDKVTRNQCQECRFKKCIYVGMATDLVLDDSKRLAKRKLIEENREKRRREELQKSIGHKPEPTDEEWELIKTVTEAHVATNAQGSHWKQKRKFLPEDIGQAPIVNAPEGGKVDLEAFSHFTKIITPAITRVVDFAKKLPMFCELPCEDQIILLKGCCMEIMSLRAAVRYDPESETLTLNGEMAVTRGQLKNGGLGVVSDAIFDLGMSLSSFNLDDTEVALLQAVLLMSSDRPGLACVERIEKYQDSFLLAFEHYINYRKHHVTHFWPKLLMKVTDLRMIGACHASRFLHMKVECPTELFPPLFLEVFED
# Sequence of UniProt Q03181 (Q03181 whole entry, looked up): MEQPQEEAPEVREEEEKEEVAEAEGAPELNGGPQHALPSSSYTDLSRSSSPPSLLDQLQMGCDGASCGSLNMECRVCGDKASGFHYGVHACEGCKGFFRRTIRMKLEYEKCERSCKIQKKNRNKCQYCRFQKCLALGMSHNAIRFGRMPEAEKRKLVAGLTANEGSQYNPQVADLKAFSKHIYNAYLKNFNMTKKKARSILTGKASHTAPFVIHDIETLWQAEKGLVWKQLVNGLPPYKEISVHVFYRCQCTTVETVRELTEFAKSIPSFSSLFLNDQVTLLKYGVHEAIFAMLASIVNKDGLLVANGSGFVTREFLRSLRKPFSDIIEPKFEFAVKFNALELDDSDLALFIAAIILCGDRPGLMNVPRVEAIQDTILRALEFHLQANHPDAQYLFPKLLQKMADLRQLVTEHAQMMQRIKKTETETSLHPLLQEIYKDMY
compound,measurement,setting,value
CCOP(=S)(OCC)Oc1cnc2ccccc2n1,Potency,[1],inactive
same,Potency,[2],inactive
same,Potency,[3],"inconclusive: 14.1 µM [inhibitor, partial curve, poor fit]"
same,Potency,[4],inactive
same,Potency,[5],"inconclusive: 86.3 µM [activator, partial curve, poor fit]"
CC(C)[C@]12CC(=O)[C@H](C)[C@H]1C2,caspase-3 activation,[6],inactive: -0.456%
same,Potency,[7],inactive
same,Potency,[8],inactive
same,activation,[9],inactive: -2.27% and inactive: 5.04%
same,max response,[10],inactive: 7% and inactive: 0.913%
same,activation,[11],inactive: -0.354% and inactive: -5.97%
same,activation,[12],inconclusive: -9.92%
CCOP(=O)(OCC)Oc1ccc([N+](=O)[O-])cc1,activation,[9],inactive: 2.69%
same,Potency,[13],"inconclusive: 28.2 µM [inhibitor, partial curve]"
same,Potency,[2],"inconclusive: 39.8 µM [inhibitor, partial curve, poor fit]"
same,"activity change, negative = inhibition",[14],inconclusive: -19.3%
same,Potency,[10],"inconclusive: 0.0018 µM [inhibitor, full curve, poor fit]"
same,activity change % (negative = inhibition),[15],inactive: -16.8%
same,Potency,[4],"inconclusive: 38.6 µM [inhibitor, partial curve, poor fit]"
same,Potency,[16],"inconclusive: 22.4 µM [side channel, falling, partial curve, poor fit]"
same,Potency,[5],inactive
COc1ccc(C(O)(c2cncnc2)C2CC2)cc1 (centres undefined),Potency,[1],inactive
same,"activity change, negative = inhibition",[17],inconclusive: -8.3%
same,Potency,[4],inactive
same,activation,[16],inactive: -2.74%
CN1COCN(Cc2cnc(Cl)s2)/C1=N\[N+](=O)[O-],Potency,[9],"inconclusive: 0.0032 µM [side channel, falling, full curve, poor fit]"
same,Potency,[2],inactive
same,Potency,[18],"inconclusive: 0.0708 µM [side channel, falling, full curve, poor fit]"
same,Potency,[4],"inconclusive: 54.5 µM [activator, partial curve]"
C[Si](Cn1cncn1)(c1ccc(F)cc1)c1ccc(F)cc1,activation,[9],inactive: 2.34%
same,Potency,[19],"inconclusive: 31.6 µM [side channel, rising, partial curve, poor fit]"
same,"activity change, negative = inhibition",[20],inconclusive: -109%
same,activation,[13],inconclusive: -17.4%
same,Potency,[2],inactive
same,Potency,[3],"inconclusive: 14.1 µM [side channel, rising, single point]"
same,Potency,[10],"inconclusive: 31.6 µM [cytotoxic, side channel, partial curve, poor fit]"
same,activity change % (negative = inhibition),[15],inconclusive: 10.1%
same,activation,[4],inconclusive: 32.1%
CCC(CC)Nc1c([N+](=O)[O-])cc(C)c(C)c1[N+](=O)[O-],Potency,[9],inconclusive: 0.0002 µM
same,Potency,[20],inactive
same,Potency,[3],inactive
same,activation,[18],inactive: -5.78%
same,Potency,[10],"inconclusive: 25.1 µM [activator, partial curve]"
same,Potency,[4],active: 27.3 µM
